Experimental findings from patent US20250043017A1 are described below.

Assay [1] has as its target human PD-L1 on cells (human) (UniProt Q9NZQ7). Kind of assay: cell-based or functional assay.
The target is the same in assay [2]. Kind of assay: flow cytometry, OVCAR3/hPD-L1 cells. In general terms: A flow cytometer gives signals particle by particle.
Assay [3] has the same target. Kind of assay: flow cytometry, OVCAR3 cells (low endogenous PD-L1).
For assay [4] the target is unchanged. Nature of the assay: flow cytometry, Jurkat/NFkB-Luc/h41BB cells (potential low endogenous PD-L1).

Sequence of UniProt Q9NZQ7 (Q9NZQ7 19-290): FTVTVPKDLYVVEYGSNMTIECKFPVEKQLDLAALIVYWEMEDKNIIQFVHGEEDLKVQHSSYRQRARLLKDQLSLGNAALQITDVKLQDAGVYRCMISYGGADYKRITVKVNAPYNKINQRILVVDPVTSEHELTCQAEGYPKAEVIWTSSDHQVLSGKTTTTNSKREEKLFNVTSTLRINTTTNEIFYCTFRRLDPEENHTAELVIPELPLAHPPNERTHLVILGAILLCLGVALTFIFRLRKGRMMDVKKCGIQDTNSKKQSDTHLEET

B1: Control 2 (bispecific antibody, part only; not given: unrelated arm VH; constant regions, V domains shown, not shown: another chain or arm of the molecule; a dimerising Fc or GST; small tags and cut ends)
VH: EVQLVESGGGLVQPGRSLRLSCAASGFTFDDYALHWVRQAPGKGLEWVSGISWTGGTIDYADSVKGRFTISRDNAKNSLYLQMSSLRTEDTAIYYCTRDIRGNWKYGGWFDPWGQGTLVTVSS
VL: [sequence of about 100 residues not given]
For B1, in assay [1], the AP-1 luciferase EC50, Jurkat/AP1-luc/hPD1 + WSU-DLCL2/hPD-L1 + CD20xCD3 was 0.874 nM and the AP-1 luciferase MAX (RLU), Jurkat/AP1-luc/hPD1 + WSU-DLCL2/hPD-L1 + CD20xCD3 amounted to 1.1e+06 RLU. Also, in assay [2], the concentration for a half-maximal effect (EC50) was 3.4 nM, the Fold change (max MFI over secondary antibody alone) came to 2410 fold and the Max [gMFI] is 9.1e+06 gMFI. Also, in assay [3], the Fold change (max MFI over secondary antibody alone) was found to be 7.4 fold and the Max [gMFI] stood at 17000 gMFI. In assay [4], this molecule had a Fold change (max MFI over secondary antibody alone) of 8.4 fold and a Max [gMFI] of 19000 gMFI.

In general, EC50 refers to the concentration at which the effect is half-maximal. Read a high EC50 as a need for much substance.
